± gives the standard deviation of the averaged measurements. The list shows a part of the results.
tested on: PfAP2-I AP2 domain 3 (GST-tagged); assay: gcPBM binding intensity (ln(normalized median fluorescence intensity)); higher = stronger DNA binding
Procedure, shortened: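 In this array assay, P. falciparum DNA-binding domains with a GST tag, expressed in E. coli, were applied for 1 h to primer-extended double-stranded 36-bp intergenic genomic probes and negative controls on an Agilent 4 × 180k array. Bound protein was visualised with Alexa488 anti-GST antibody at 488 nm. Binding intensity is the highest Masliner-normalised natural-log median intensity across replicate spots of either probe orientation.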

| Sequence | gcPBM binding intensity (ln) |
| --- | --- |
| TTTCTTTTTTGATGCGTGCACATTTGTTTATTTTTC [GTGCAC_site9792] | 9.63 ± 0.65 |
| ACTATTTAATATAGGGTGCAACTTTTTCAAGTAAAT [GTGCAC_site9853] | 9.24 ± 0.52 |
| GTATGCATTATATACACACATACATTTATATATTCT [CACACA_site115] | 8.23 ± 0.63 |
| AGTAATAAAAGTAGAAGTACAATACTTCAAAGATAT [XGTACX_site8562] | 8.02 ± 0.42 |
| GTTCTAAAAGTTAATGCATGTTATAAGTTTCCCTCT [TGCATGCA_site94] | 8.18 ± 0.93 |
| TATTTCAAAATATGGGTGCAGTTCTTCATGATATAT [GTGCAC_site9658] | 9.93 ± 0.16 |
| TGCTATTTTTTCCTTTTTTTGTATCACAATCATATA [CACACA_negctrl_site1576] | 7.78 ± 0.52 |
| TTATACTTTGGGTGGTGTACTATATTATGCTTATAA [XGTACX_site1106] | 8.81 ± 0.38 |
| ATGTATATATTTACGTGTACATATTCATGTGATATC [XGTACX_site5871] | 7.8 ± 0.49 |
| ATTAAACATAAATATGCACACATATACATATATTCA [CACACA_site8850] | 8.8 ± 0.085 |
| TGTGTTCATATATGCACACGCATATATATTATTGTT [CACACA_site3822] | 9.1 ± 0.25 |
| TGTGTCCATTGAACAGTGCAATAAAAACTTTTACAT | 11.2 ± 0.59 |
| ATAAATATGGAGCACACACACATAAACATACATATA [CACACA_site421] | 8.27 ± 0.32 |
| ATTTTTATTCTTATTACACACCTAAATATAAAATAT [CACACA_site2064] | 8.34 ± 0.63 |
| TTTATATTTATATTGGGTACATAAAAAGCTTGAAAT [XGTACX_site8248] | 7.95 ± 0.35 |
| AAAAAAAAAAAACACACACACACACCGATACATACA [CACACA_site8849] | 7.92 ± 0.45 |
| TTTTTTTTTTTGTGGTGTACCTTTATTTCCTTTTAG [XGTACX_site6934] | 8.29 ± 0.76 |
| AAAGGGGAAAATATTATACATATAATAAATCCGTAT [XGTACX_negctrl_site355] | 7.46 ± 0.77 |
| ATTCATTTTATTTTTTCACACACACCGATATATATA [CACACA_site9097] | 8.1 ± 0.56 |

| Sequence | gcPBM binding intensity (ln) |
| --- | --- |
| ATTTTTCAATTATGTAGTACATTGATATTTTCATTT [XGTACX_site5369] | 7.78 ± 0.47 |
| ACCCCCATATTCTTTTTACACACTTGAATAAAAAAT [CACACA_site8319] | 8.8 ± 0.29 |
| CAAATACACGGACACACACACACAAAAAAAAAAAAA [CACACA_site6385] | 8.36 ± 0.014 |
| AAATTATTGTAAAATAGTACAGTGAAACATAAAGTT [XGTACX_site589] | 8.12 ± 0.52 |
| TTTATTTGGACATATACACACTTAAATATGTTTATT [CACACA_site6021] | 7.59 ± 0.47 |
| TTTATTTTGTTTTCTTGTACATAAATAATTACATAT [XGTACX_site4227] | 7.87 ± 0.67 |
| TAAATACAAGTAAAAAGTACAGAAAAATTATATATA [XGTACX_site1758] | 7.58 ± 0.47 |
| TGATTCACTATAGTAGTGCATATTATATATATATAT [GTGCAC_site9975] | 10.3 ± 0.25 |
| TATAATAATTCATAATGTACTTTTATCAAAAAAGTA [XGTACX_site6868] | 7.57 ± 0.32 |
| AAGAGAAATGGGCACACACACACATATTATAGATAT [CACACA_site6828] | 7.95 ± 0.63 |
| TATAAAAAATTCAATACACACCATATATAAATATAT [CACACA_site6060] | 7.55 ± 0.4 |
| AAAAAAAAATATATATATATATATATATAATAAAAA [CACACA_negctrl_site639] | 7.92 ± 0.46 |
| ATTTATGTTATTGTATGTACACAATATAATGTTATT [XGTACX_site5657] | 7.82 ± 0.39 |
| ATTCTACACGCACATACACACATATAAATATAAATA [CACACA_site7582] | 8.7 ± 0.24 |
| ACACAAAAATAGTTTTTTATATTGTTAACCTTATAT [XGTACX_negctrl_site123] | 7.75 ± 0.66 |
| ATAATATATATGAAATGTACATAAATTTAATGCGAC [XGTACX_site5394] | 8.38 ± 0.35 |
| ATATTTTACATATTTGCACACATATATTTAAATACA [CACACA_site4628] | 9.73 ± 0.28 |
| AAAAAAAAAAAATGTGCACACGCGTACAGACAAAAA [CACACA_site2005] | 9.53 ± 0.13 |
| TAAAAAGTACATTATTCATGGCCTATTACATTTTTT [GTGCAC_negctrl_site282] | 7.88 ± 0.4 |

| Sequence | gcPBM binding intensity (ln) |
| --- | --- |
| ATGTGCACATGTAGAAGTACTTTTTCTTAAAATACT [XGTACX_site8341] | 9.045 ± 0.049 |
| TATGTTTTATATAAGATGCACTTTTGTTATGCTTCA | 8.85 ± 0.3 |
| TAAAATAGAAATATATGTACATATATATATGTATAT [XGTACX_site4134] | 7.74 ± 0.37 |
| ATTTATATTTTTTAATGTACATTTATATGTATACAA [XGTACX_site4555] | 7.87 ± 0.57 |
| CGATATTCTAAGGATAGTACATAATAAAATAGAGTA [XGTACX_site4224] | 7.68 ± 0.57 |
| AAAAAACGCACTCGTACACACATATTTTCTTTCTAA [CACACA_site3089] | 9.31 ± 0.12 |
| AATATTTACCAGAAAATAAAAATATGTATATATATA [CACACA_negctrl_site351] | 8.81 ± 0.28 |
| TTAATTACACAAAAAAGTACTTGATATTGTTTATTA [XGTACX_site3449] | 7.59 ± 0.38 |
| ATATAATCAACTGCAAAGGTTTAAAAGGAAAAAATA [CACACA_negctrl_site989] | 7.68 ± 0.78 |
| TTTTTATTCAACAAAAATATCAAACATAATTATAAA [CACACA_negctrl_site616] | 7.64 ± 0.49 |
| AATATTTATATTTACACACACATAATACATATATGT [CACACA_site33] | 7.87 ± 0.59 |
| ATATACAACTAAAGAACACACATCATTGTTCATTGG [CACACA_site3681] | 7.58 ± 0.61 |
| ATTTTTATGTCTTTCTATAAATCGAAAATATACATA [CACACA_negctrl_site477] | 7.7 ± 0.52 |
| TTCCTTTAACCCTGCACACATACATACATTTATATG [CACACA_site3953] | 8.91 ± 0.63 |
| CGTCCAAAATATCCTTCACACACGAACAGTTTCATT [CACACA_site2729] | 7.99 ± 0.52 |
| CTATAATATTATAACAGTACATAATATTATATATAT [XGTACX_site1414] | 8.21 ± 0.56 |
| TTTAAATAAAAATGGAGTACTCTAAAAAAAAAAAAA [XGTACX_site1233] | 8.21 ± 0.49 |
| GCATTGATCAAACATACACACATGGTTAATAAAAAT [CACACA_site2085] | 7.96 ± 0.36 |
| TTTATATAATATTCTACACACCAACAACAAACATAT [CACACA_site4478] | 8.41 ± 0.25 |
